# In all, about 420,000 compounds went through this assay and about 50,000 (12%) were called active. This list was built around the results that the source calls inconclusive (neither active nor inactive); the mix of calls is not that of the screen. The call rests on the fitted dose curve; in most records, active means well fitted inhibition curve with a large enough effect; inconclusive means small, poorly fitted or top-dose-only effect; inactive means flat fitted curve, though single readings scatter. No potency is given beside an inconclusive call; the fits are too rough.
# Assay: qHTS for Inhibitors of human tyrosyl-DNA phosphodiesterase 1 (TDP1): qHTS in cells in presence of CPT; further: nearly all actives have a fitted effect of over 55% in size
# Settings: chicken DT40 Tdp1-/-;hTDP1 cells + 20 nM CPT, ATP luminescence, 48 h; activity change, negative = growth inhibition: at 46.2 µM (top of the series) unless noted
# Summary of the method: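 Cell growth measured by CellTiter-Glo luminescence after a minimum 48 h, 37 C compound exposure with 20 nM CPT in Tdp1-knockout DT40 cells stably expressing hTDP1, seeded 400/well; qHTS titration format.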
# On the % scale 0 is the no-effect control and ±100 the full control effect; potency means the concentration at half of the fitted maximal effect; tags describe the fitted curve by direction and shape.
SMILES,Potency,"activity change, negative = growth inhibition"
CCCc1cc2c(OC(=O)CC)c(-c3ccc(C(=O)OCC)o3)c(=O)oc2cc1OC,"inconclusive [inhibitor, single point]",–
Cn1c2ccccc2c2nnc(SCC(=O)NCc3ccoc3)nc21,–,inactive: 4.35%
O=C(c1cccs1)N1CCN(c2nnc(-c3ccccc3)c3ccccc23)CC1,"inconclusive [inhibitor, single point]",–
Cc1cc(C(F)(F)F)cc(NNC(=O)NC(=O)c2ccc(Cl)cc2)n1,"inconclusive [inhibitor, single point]",–
COc1ccc(CN(C)Cc2nc(Cc3ccccc3Cl)no2)cc1OC,"inconclusive [inhibitor, single point]",–
COCc1ccc(C(=O)N2CCCC(CCC(=O)NCc3ccccc3F)C2)o1 (stereo not given),active: 3.66 µM,–
O=C(c1cccc(Cl)c1)N1c2nc(-c3ccco3)nn2C2(CCCCC2)[C@@H]2CCCC[C@@H]21,"inconclusive [inhibitor, single point]",–
O=C1CN(C(=O)N[C@@H](Cc2ccccc2)C(=O)N[C@@H](C(=O)O)c2ccccc2)c2ccccc2N1,"inconclusive [inhibitor, single point]",–
O=C(O)c1sc2cc(C(F)(F)F)cnc2c1-c1ccccc1,–,inactive: -10.3%
O=C(NNC(=S)NC(=O)c1cccs1)c1cccnc1,"inconclusive [inhibitor, single point]",–
CCOc1ccc(NS(=O)(=O)c2ccc(C(=O)N(C)C)s2)cc1,"inconclusive [inhibitor, partial curve]",–
Cc1nn(-c2ccccc2)c(C)c1CC(=O)NCC1Cc2cc(F)cc(-c3cccnc3)c2O1 (stereo not given),"inconclusive [inhibitor, single point]",–
CCCCCn1nnnc1C1c2ccccc2C(=O)N1Cc1ccco1 (stereo not given),"inconclusive [inhibitor, partial curve]",–
C/C(CCc1ccc2c(c1)OCO2)=N\N=C1\NC(=O)CC(C(=O)Nc2ccccc2)S1 (stereo not given),–,inactive: 0.951%
Cc1nn(-c2ccc(N3CCCCC3)nn2)c(C)c1CCC(=O)Nc1ccc(F)cc1F,active: 16.4 µM,–
CCc1ccccc1NC1c2ccccc2C(=O)N1Cc1ccco1 (stereo not given),–,inactive: -4.66%
O=C(O)CSc1nc2sc3c(c2c(=O)n1-c1ccccc1)CCC3,–,inactive: 1.96%
C#CC(CO)N(CCN(Cc1ccccc1)C(C#C)CO)Cc1ccccc1 (stereo not given),"inconclusive [inhibitor, single point]",–
COC(=O)c1ccccc1OCCOCCOc1cccc2cccnc12,"inconclusive [inhibitor, single point]",–
O=C(N/N=C/C1CC=CCC1)c1cc(-c2cccnc2)nc2ccccc12 (stereo not given),–,inactive: -2.2%
COc1cc([N+](=O)[O-])ccc1NC(=O)CC1SC(=Nc2ccc(F)cc2)N(CCC2=CCCCC2)C1=O (stereo not given),active: 16.4 µM,–
Cc1ccc(CN(C(=O)Cn2nnc3ccccc32)C(C(=O)NCc2ccco2)c2cccs2)cc1 (stereo not given),"inconclusive [inhibitor, single point]",–
CC(C)CC1Nc2ccc(C(=O)NCCCN3CCOCC3)cc2NC1=O (stereo not given),active: 25.9 µM,–

SMILES,Potency,"activity change, negative = growth inhibition"
COc1cc(OC)cc(N2C(=O)N(Cc3ccc(C(C)(C)C)cc3)c3ccccc3S2(=O)=O)c1,"inconclusive [inhibitor, single point]",–
CC(C)n1c(SCC(=O)Nc2nncs2)nnc1-c1ccco1,–,inactive: 4.23%
c1coc(Cn2c(SCc3nc4ccccc4[nH]3)nnc2-c2cnccn2)c1,"inconclusive [inhibitor, partial curve]",–
Cc1cc(C(=O)NC2CCCCCCC2)ccc1[N+](=O)[O-],"inconclusive [inhibitor, single point]",–
CN(C)CCCN(C(=O)c1ccc(C(=O)c2ccccc2)cc1)c1nc2cc3c(cc2s1)OCCO3,–,inactive: -29.5%
CCN1CCN(C(=O)c2ccc(C(F)(F)F)cc2)CC1,–,inactive: 0.968%
COC(=O)c1scc(-c2ccc(C)cc2)c1S(=O)(=O)N1CCN(c2ccccc2)CC1,active: 11.6 µM,–
O=C(C1CCCN(S(=O)(=O)c2cccc3nsnc23)C1)N1CCN(c2ccccc2)CC1 (stereo not given),active: 16.4 µM,–
Cc1cc(C(=O)Nc2ccccc2)oc(=O)c1,"inconclusive [inhibitor, single point]",–
COc1ccc(Cn2c(O)c(C=Nc3ccccc3C(=O)O)c3ccccc3c2=O)cc1,active: 14.6 µM,–
COc1ccc(OC)c(CNC(=O)c2ccc3c(c2)c(C)c(C)n3Cc2ccc(Cl)cc2)c1,active: 16.4 µM,–
COc1ccc(OC(C)C(=O)Nc2ccc([N+](=O)[O-])cc2)cc1 (stereo not given),"inconclusive [inhibitor, single point]",–
C[C@H](CO)N1C[C@H](C)[C@@H](CN(C)C(=O)NC2CCCCC2)Oc2c(NS(=O)(=O)c3cn(C)cn3)cccc2C1=O,–,inactive: -5.08%
O=C(Nc1cc(C2CC2)nn1-c1ccccc1)c1ccc(F)cc1,–,inactive: 2.74%
CCOc1ccc(NC(=S)N(CCN2CCOCC2)Cc2ccc3c(c2)CCCN3CC)cc1,"inconclusive [inhibitor, single point]",–
CCOc1ccc(NC(=O)c2c(NCc3cccc(OC)c3OC)sc3c2CCC3)cc1,"inconclusive [inhibitor, single point]",–
S=C1NC(c2ccccc2)=NCN1c1ccc(Br)cc1,"inconclusive [inhibitor, single point]",–
Cc1cc(N2CCC(C)CC2)nc2ccc(NC(=O)Cc3c(F)cccc3Cl)cc12,"inconclusive [inhibitor, full curve]",–
Cc1c(C(=O)N(C)C(C)c2ccccn2)oc2c(F)cccc12 (stereo not given),–,inactive: -26.6%
Cc1ccc(NC(=O)c2ccccc2OCC(=O)c2ccccc2)cc1,"inconclusive [inhibitor, single point]",–
Cc1ccc(Cl)c(OCCN2CCc3ccccc3C2)c1,"inconclusive [inhibitor, single point]",–
CCOc1ccc(C(=O)c2ccc(OC)c(O)c2O)cc1,active: 20.6 µM,–
